Laboratory results reported in PubChem BioAssay AID2546 (National Center for Advancing Translational Sciences (NCATS), 2010).
The whole screen tested about 310,000 compounds, of which about 11,000 (3.5%) were called active. Inconclusive means that the source gave no clear call. Such entries were picked first, then a sample of the others. Calls follow the shape of the dose curve; as a rule, active = well fitted inhibition curve with a large enough effect; inconclusive = small, poorly fitted or top-dose-only effect, or effect the other way; inactive = flat fitted curve, though single readings scatter. Potencies of inconclusive entries are left out as doubtful fits.

Experiment: VP16 counterscreen qHTS for inhibitors of ROR gamma transcriptional activity;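 also: Gal4-VP16 expression switched on by copper sulfate through the metallothionein promoter; nearly all actives have a fitted effect of over 50% in size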
Conditions: Drosophila S2 Gal4-VP16 UAS-luciferase, luminescence, 20 h; series mostly up to 53.6 µM
Potency is read from the fitted curve at half-maximal effect; tags tell the direction and shape of the fitted curve.

Row | SMILES | Potency
1 | CC(C)N(C)CCOC(=O)C1COc2ccccc2O1 (stereo not drawn) | inactive
2 | Cc1cc([N+](=O)[O-])c(C)cc1-c1ccc(/C=N/NC(=O)c2cccnc2)o1 | inconclusive [inhibitor, single point]
3 | CCOC(=O)C1CCN(C(=O)/C=C/c2ccccc2)CC1 | inactive
4 | CC1=C(C(=O)Nc2ccccc2C(=O)NCCCN2CCN(C)CC2)SCCO1 | inactive
5 | CSc1nc2sc(-c3ccccc3)cc2c(=O)n1N | inconclusive [inhibitor, single point]
6 | O=C(CN1C(=O)c2ccccc2C1=O)c1ccccc1 | inactive
7 | Cc1nc2cc(NCc3ccccc3O)ccc2n1Cc1ccccc1 | inconclusive [inhibitor, partial curve]
8 | CCCC(=O)Nc1cc(-c2nnc(OC)c3ccccc23)ccc1N1CCCCC1 | inconclusive [inhibitor, full curve, poor fit]
9 | CCOC(=O)N/N=C/c1cn(CCCOc2ccc(C)cc2)c2ccccc12 | active: 1.78 µM
10 | CCCCN(CC)S(=O)(=O)c1ccc(C(=O)N(CCCN(C)C)c2nc3cc(C)cc(C)c3s2)cc1 | inconclusive [inhibitor, single point]
11 | CCNc1nc(N)c(C(=O)c2ccc(Cl)s2)s1 | inconclusive [inhibitor, single point]
12 | CCN(CC)S(=O)(=O)c1cc(C(=O)Nc2ccncc2)ccc1Cl | inconclusive [inhibitor, partial curve]
13 | Cc1ccc(C(C[N+](=O)[O-])c2c(C)cc3ccccn23)cc1 (stereo not drawn) | inconclusive [inhibitor, partial curve]
14 | Cc1nc(=S)c2c([nH]1)-c1ccccc1CC21CCCCC1 | active: 1 µM
15 | O=C(Cc1ccccc1)NC(=S)Nc1cccc(C(F)(F)F)c1 | active: 12.6 µM
16 | CC(C)Oc1ccc(C(=O)CCN2CCCCC2)cc1 | active: 6.31 µM
17 | CN(CC(=O)N1CCCCC1)S(=O)(=O)c1ccc(Cl)cc1 | inconclusive [inhibitor, single point]
18 | Cc1cnc(NC(=O)c2ccc3c(c2)C(=O)N(Cc2ccco2)C3=O)s1 | inconclusive [inhibitor, single point]
19 | CC(NC(=O)CSc1nc2ccccc2c(=O)[nH]1)c1ccccc1 (stereo not drawn) | inconclusive [activator, partial curve]
20 | O=C(N/N=C/c1ccccn1)c1cccnc1 | inconclusive [inhibitor, single point]
21 | CCN1C(=NCCCCO)N[C@@H](c2ccccc2)C(C(=O)OC)=C1C | inactive
22 | OCCn1c(-c2ccc3c(c2)OCO3)csc1=Nc1ccccc1 | inconclusive [inhibitor, single point]
23 | Clc1ccc(-c2nnc(SCc3nc4ccccc4[nH]3)o2)c(Cl)c1 | inconclusive [inhibitor, partial curve]
24 | CC(C)C(=O)NC(=S)NCC(=O)c1ccccc1 | inconclusive [inhibitor, single point]
25 | COc1cccc(NS(=O)(=O)c2ccc(-n3cccn3)cc2)c1 | inconclusive [inhibitor, single point]

Row | SMILES | Potency
26 | Cc1ccc(-c2cc(-c3ccccc3O)nc(N/N=C/c3cccnc3)n2)cc1 | inconclusive [inhibitor, single point]
27 | CC(=O)c1sc(N/N=C\c2ccccc2O)nc1C | active: 3.98 µM
28 | COc1cc(CN(C)CC(=O)c2[nH]c(C)c(C(C)=O)c2C)ccc1OC(F)F | active: 2.82 µM
29 | CC(C(=O)NC1CCCc2ccccc21)N1CCN(Cc2ccc3c(c2)OCO3)CC1 (stereo not drawn) | inconclusive [inhibitor, single point]
30 | CCNc1nc(NCC)nc(N/N=C/c2ccccc2)n1 | inactive
31 | CCOC(=O)C1CCCN(C(=O)Cn2sc3nc(C)cc(C)c3c2=O)C1 (stereo not drawn) | active: 1.78 µM
32 | Cc1cc(C)nc(-n2nc(C)c(Sc3ccc(F)cc3)c2N)n1 | active: 3.98 µM
33 | CSc1nnc2c3c4c(sc3nc(-n3nc(C)cc3C)n12)COC(C)(C)C4 | inactive
34 | O=C(Nc1ccc(Cl)cc1)NC1CCCCC1 | inconclusive [inhibitor, single point]
35 | CCCCCNC(=O)c1ccc2c(c1)ncn2-c1ccc(OC)cc1 | inactive
36 | Cc1cnc(NC(=O)c2ccccn2)s1 | active: 4.47 µM
37 | COc1ccc(NC(=O)C2C3C=CC(O3)C2C(=O)NCc2cccnc2)cc1 (stereo not drawn) | inconclusive [inhibitor, single point]
38 | S=C(Nc1ccc2c(c1)OCCO2)Nc1ccccc1Cl | inconclusive [inhibitor, single point]
39 | Cc1ccc(NC(=S)NC(=O)/C=C/c2ccco2)c(O)c1 | inconclusive [inhibitor, single point]
40 | c1cc2c(c(NCc3ccncc3)c1)CCCC2 | inconclusive [inhibitor, single point]
41 | COCCCN=C1NN=C(c2cc(C)n(Cc3ccco3)c2C)CS1 | inconclusive [inhibitor, partial curve, poor fit]
42 | N#CC(c1cccc(Cl)c1)c1ccc2c(C(F)(F)F)cc(C(F)(F)F)nc2n1 (stereo not drawn) | active: 3.98 µM
43 | c1ccc(-c2ccc(C3=Nn4c(nnc4-c4cccs4)SC3)cc2)cc1 | inactive
44 | CC1CCCCN1c1ncnc2ccccc12 (stereo not drawn) | inconclusive [inhibitor, single point]
45 | COc1ccc(/C=C/C(=O)Nc2cc(C)nn2-c2nc3ccccc3[nH]2)cc1 | active: 2.51 µM
46 | Cc1c(C(=O)N/N=C/c2ccc(N(C)C)cc2)[nH]c2ccc(Cl)cc12 | inconclusive [inhibitor, single point]
47 | c1ccc(N2CCN(c3nc(-c4ccccn4)nc4ccccc34)CC2)cc1 | active: 1.58 µM
48 | O=C(c1cc(COc2c(F)cccc2F)on1)N(Cc1ccccc1)CC1CC1 | inactive
49 | Oc1ccc(-c2nc3ccc4ccccc4c3c3c2CCC3)cc1O | inconclusive [inhibitor, single point]
50 | O=C1C=CC(=O)N1c1ccc(Sc2ccc([N+](=O)[O-])cc2)cc1 | inconclusive [inhibitor, single point]

Row | SMILES | Potency
51 | Cc1ccc(-n2nc(C)c(/C=N/NC(=O)c3cccnc3)c2Cl)cc1 | inconclusive [inhibitor, single point]
52 | O=C(NC(=S)Nc1ccccc1Cl)c1cncc(Br)c1 | active: 4.47 µM
53 | Cc1ccc(NC(=S)Nc2ccc(OC(F)F)c(Cl)c2)cc1Cl | inconclusive [inhibitor, single point]
54 | O=C1Nc2ccc(Br)cc2C12NNc1ccccc1O2 (stereo not drawn) | inconclusive [inhibitor, single point]
55 | Cn1c(=O)c2c(nc(Cc3ccccc3)n2C)n(C)c1=O | inactive
56 | O=C(COc1ccc(Cl)cc1)Nc1ncc([N+](=O)[O-])s1 | inconclusive [inhibitor, single point]
57 | Cc1cc(C)c(S(=O)(=O)N2CCCC(C(=O)NC3CCCC3)C2)c(C)c1 (stereo not drawn) | inactive
58 | Cn1c(=O)oc2cc(S(=O)(=O)NCc3ccncc3)ccc21 | inconclusive [inhibitor, single point]
59 | COc1ccc([C@@H]2[C@@H]3C(=O)N(C(C)(C)C)C(=O)[C@@H]3[C@]3(CC(C)C)C(=O)N(c4ccccc4)C(=O)N23)cc1 | inconclusive [inhibitor, full curve]
60 | O=C(Nc1ccccc1)Nc1nnc(/C=C/c2ccccc2Cl)s1 | inconclusive [inhibitor, single point]
61 | CCOc1cc(CNCCSc2nnnn2C)cc(Br)c1OCc1ccc(F)cc1 | inconclusive [inhibitor, single point]
62 | CCSc1nc2ccccc2n1C(=O)/C=C\c1ccc(OC)c(OC)c1 | active: 10 µM
63 | CC(=O)c1c(C)[nH]c(C(=O)NCc2cccs2)c1C | inconclusive [activator, single point]
64 | Cc1c(Cl)cccc1NC(=S)NCc1cccn1C | active: 17.8 µM
65 | CC1=C(C(=O)Nc2ccc([N+](=O)[O-])cc2)C(c2cccc(C(F)(F)F)c2)NC(=S)N1c1ccccc1 (stereo not drawn) | inconclusive [inhibitor, single point]
66 | CCS(=O)(=O)c1nc(S(=O)(=O)c2ccc(Cl)cc2)c(N2CCc3ccccc3C2)s1 | inconclusive [activator, single point]
67 | O=C(O)CN1C(=O)/C(=C\C(Br)=C\c2ccccc2)SC1=S | inconclusive [inhibitor, single point]
68 | COc1nc(OCC#N)nc(N(C)C)n1 | inactive
69 | O=C(c1ccc(S(=O)(=O)N2CCCCC2)cc1)N1CCN(CCN2C(=O)c3cccc4cccc(c34)C2=O)CC1 | inconclusive [activator, single point]
70 | CCOc1ccc(CC(=O)N/N=C(\C)c2cccnc2)cc1 | inconclusive [inhibitor, single point]
71 | O=C(NC(=S)Nc1ccc(Cl)cn1)c1cccs1 | active: 1 µM
72 | Oc1ccc(-c2csc(Nc3ncccn3)n2)cc1O | inconclusive [inhibitor, single point]
73 | Cc1ccc(NC(=O)COC(=O)/C=C/c2cccc(Cl)c2)cc1S(=O)(=O)N1CCOCC1 | inconclusive [inhibitor, single point]
